Data as given in PubChem BioAssay AID1345083 (National Center for Advancing Translational Sciences (NCATS), 2018).
In all, about 94,000 compounds went through this assay and about 6,200 (6.6%) were called active. This list was built around the results that the source calls inconclusive (neither active nor inactive); the mix of calls is not that of the screen. Calls come from the whole dose curve; as a rule, active = well fitted inhibition curve with a large enough effect; inconclusive = small, poorly fitted or top-dose-only effect; inactive = flat fitted curve, though single readings scatter. A potency beside an inconclusive call is a rough fit, not a confirmed value.
% is set by controls: 0 for no effect and ±100 for the full control effect; potency is the fitted concentration of half-maximal effect; tags give direction and shape of the fitted curve.

Experiment: Cytotoxic Profiling in HEK 293 Cell Line of Diverse Libraries Using Quantitative High-Throughput Screening; note: nearly all actives have a fitted effect of over 60% in size
Details: HEK 293 viability, ATP luminescence (CellTiter-Glo), 48-72 h; activity change, negative = cytotoxicity: at 115 µM (top of the series) unless noted; series mostly up to 115 µM
Method in brief: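 Luminescence from cellular ATP, measured with CellTiter-Glo, indicates HEK 293 viability. Cells plated at 250 cells/well are treated with compound for 48 or 72 hr at 37 degree Celsius before reagent addition.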
For `O=C(C1CCCCC1)N1CC(=O)N(C2Cc3ccccc3C2)CC(O)C1` (configuration not stated), the Potency was inconclusive: 39.8 µM [inhibitor, partial curve, poor fit].
In the case of `Cc1noc(C)c1[S+](=O)([O-])N1CCCC2(CC(c3cccc(C(F)(F)F)c3)=NO2)C1` (configuration not stated), the Potency is reported as active: 35.5 µM.
With `COCCOCC1(CNC(=O)c2ccc(OC)cc2)C[C@@H](O)[C@@H](O)C1` (some centres not stated) the Potency was “inactive”.
For `Cc1ccccc1C(=O)N1CCC(c2nn(-c3ccc(F)cc3)c(=O)[nH]2)CC1`, the Potency was inconclusive: 79.4 µM [inhibitor, partial curve, poor fit].
For `COc1ccc(-c2cc(N3CCN(C(=O)c4cccc(C#N)c4)CC3)n[nH]2)cc1`, the Potency was inconclusive: 89.1 µM [inhibitor, single point].
In the case of `COc1cccc(CCNC(=O)c2c(C)noc2-c2cc(OC)cc(OC)c2)c1`, the activity change, negative = cytotoxicity is reported as inconclusive: -33.7% [inhibitor].
With `O=Cc1ccccc1Oc1ccc(F)c(Cl)c1` the Potency was inconclusive: 31.6 µM [inhibitor, partial curve, poor fit].
In the case of `C=CCNC(=O)Cc1ccc(N(Cc2ccccc2)C(=O)c2ccco2)cc1`, the Potency is reported as inconclusive: 89.1 µM [inhibitor, single point].
In the case of `O=C(NC1CCN(c2cc(-c3ccccc3)[nH]n2)CC1)c1ccccc1`, the Potency is reported as inconclusive: 50.1 µM [inhibitor, partial curve, poor fit].
With `Cc1ccc(Nc2ccnc(N3CCCC(C(=O)NCCc4ccc(F)cc4)C3)n2)cc1` (configuration not stated) the Potency was active: 31.6 µM.
With `COc1ccc([C@@H](NC(=O)CN2CCCCCC2=O)C2CC(O)C2)cc1F` (some centres not stated) the Potency was “inactive”.
In the case of `CN(C)C[C@@H]1CN(c2ccncn2)C[C@H]1NC(=O)c1cnco1`, the Potency is reported as “inactive”.
In the case of `O=C(CC1=C2CCCCC2NC1=O)NC1CC1` (configuration not stated), the Potency is reported as “inactive”.
In the case of `COCCN(C)C(=O)c1ccc2c(c1)NC(C)(CCCCc1ccccc1)CO2` (configuration not stated), the Potency is reported as inconclusive: 100 µM [inhibitor, partial curve].
With `CC(C)c1ccc(NC(=O)O[C@@H]2CO[C@H]3[C@@H]2OC[C@@H]3NS(=O)(=O)Cc2ccccc2)cc1` the Potency was inconclusive: 89.1 µM [inhibitor, single point].
For `COCCN1CCOC2(CCN([S+](=O)([O-])c3cccc(C)c3)CC2)C1=O`, the Potency was “inactive”.
With `Cc1nn(C)c(=O)n1C1CCN(C(=O)c2ccco2)CC1` the Potency was “inactive”.
With `COc1ccc(C(=O)NC(C(=O)NC(C)C)C2CCN(C(=O)c3ccccc3C)CC2)cc1` (configuration not stated) the Potency was inconclusive: 89.1 µM [inhibitor, single point].
In the case of `Cc1noc(C)c1CN1CCC2(CC1)COCCN2C(=O)c1ccccc1`, the Potency is reported as inconclusive: 126 µM [inhibitor, single point].
For `Cc1cc2cc(-c3c(C)noc3C)nc(-c3ccsc3)c2o1`, the Potency was inconclusive: 79.4 µM [inhibitor, partial curve].
In the case of `CCn1nccc1C(=O)N1CCCN(C)c2ccccc21`, the Potency is reported as inconclusive: 79.4 µM [inhibitor, partial curve].
For `CC(C)CCNC(=O)CCC1CCN(S(=O)(=O)c2cccc(F)c2)CC1`, the Potency was inconclusive: 79.4 µM [inhibitor, single point].
With `CNC(=O)c1cc(C2CC2)nc2onc(C3CCN(C(=O)c4ccc(F)cc4)CC3)c12` the Potency was “inactive”.
With `CCOC(=O)[C@@H]1CN(C(=O)c2cccc(OC)c2)[C@H]2c3ccccc3O[C@@H]12` the Potency was inconclusive: 79.4 µM [inhibitor, partial curve, poor fit].
For `O=C1CCCN1CC1CCCN(Cc2cc(F)ccc2-n2cccn2)C1` (configuration not stated), the Potency was “inactive”.
For `CC1=C[C@@H](CN2CCC(O)CC2)[C@H](C(C)C)C[C@H]1Cc1nnc(-c2ccncc2)o1`, the Potency was inconclusive: 112 µM [inhibitor, partial curve, poor fit].
With `Cc1cc(=O)n(CC(=O)Nc2c(C)cccc2C)c(N(C)Cc2ccccc2)n1` the Potency was “inactive”.
With `O=C1CC2(CCN(C(=O)c3ccccc3)CC2)Oc2ccccc21` the Potency was inconclusive: 112 µM [inhibitor, partial curve].
In the case of `Cc1ccc(-c2cc(N3CCCN(C(=O)Cc4ccccc4Cl)CC3)n[nH]2)cc1C`, the Potency is reported as inconclusive: 50.1 µM [inhibitor, partial curve, poor fit].
In the case of `CN(Cc1nccs1)C(=O)CC(c1ccccc1)c1cccc(Cl)c1` (configuration not stated), the Potency is reported as inconclusive: 50.1 µM [inhibitor, partial curve, poor fit].
In the case of `COCCNC(=O)c1ccc2c(c1)N(C)C(CC(=O)N(C)CC(C)C)CO2` (configuration not stated), the Potency is reported as inconclusive: 50.1 µM [inhibitor, partial curve, poor fit].
For `COCCCn1c(=O)c(C(=O)N(C)C)nc2cccnc21`, the Potency was “inactive”.
For `Cc1ccc(NC(=O)N2Cc3[nH]cnc3C[C@H]2c2nc(C(C)C)no2)cc1`, the Potency was “inactive”.
In the case of `Cc1ccc(-c2[nH]ncc2CN2C[C@@H](CO)[C@H](c3ccccn3)C2)cc1`, the Potency is reported as inconclusive: 112 µM [inhibitor, partial curve, poor fit].
For `CC1CCC2(CC1)NC(=O)N(CC(=O)N1CCCc3ccccc31)C2=O` (configuration not stated), the Potency was “inactive”.
For `CCNC(=O)OC1CCN(C(=O)c2cc3ccccc3s2)CC(=O)N(C)c2ccccc21` (configuration not stated), the Potency was inconclusive: 22.4 µM [inhibitor, full curve, poor fit].
In the case of `COc1ccccc1C(=O)N1CCC(N2C(=O)c3c(c(C)nn3-c3ccccc3)C2C)CC1` (configuration not stated), the Potency is reported as active: 39.8 µM.
In the case of `COCC(=O)NC1CCN(Cc2ccc(-c3ccccc3OC)cc2)C1` (configuration not stated), the Potency is reported as inconclusive: 63.1 µM [inhibitor, partial curve, poor fit].
In the case of `Cc1ccc(CNC(=O)N2CCCC(c3nn(C)c(=O)n3Cc3ccccc3)C2)cc1` (configuration not stated), the Potency is reported as “inactive”.
For `CCCc1cc(C(=O)N2CCC(=O)N(Cc3ccccc3)C(CC)C2)ccn1` (configuration not stated), the Potency was inconclusive: 22.4 µM [inhibitor, full curve].
In the case of `O=C(NC1CCCN(c2cc(-c3ccc(F)cc3)[nH]n2)C1)c1cnccn1` (configuration not stated), the Potency is reported as inconclusive: 79.4 µM [inhibitor, single point].
For `COc1ccccc1Cn1c(=O)c(C(=O)N2CCN(C(=O)Cc3ccc(F)cc3)CC2)nc2cccnc21`, the Potency was inconclusive: 50.1 µM [inhibitor, partial curve, poor fit].
